# Test results from PubChem BioAssay (NCATS).
# This list was built around the results that the source calls inconclusive (neither active nor inactive); the mix of calls is not that of the screen. For part of these data: No potency is given beside an inconclusive call; the fits are too rough. Active and inactive are the calls of the source. Unless noted, calls follow the shape of the dose curve; as a rule, active = well fitted curve in the direction sought with a large enough effect in the repeat runs; inconclusive = weak or mixed curves; inactive = no such curve, though single readings can be large; an effect the other way counts as inactive or inconclusive.
# Assays:
# [1] = molecular target: Cytochrome P450 2D6 (Homo sapiens) (UniProt P10635); test: Cytochrome P450 family 2 subfamily D member 6 (CYP2D6) small molecule antagonists: luciferase biochemical (cell-free) qHTS assay (AID 1645840); also: nearly all actives have a fitted effect of over 55% in size; also: potency is read from the fitted curve at half-maximal effect
# Procedure, shortened: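 P450-Glo luminescent screen: recombinant CYP2D6 enzyme–proluciferin substrate mix preincubated with compound 10 min at room temperature, then NADPH regeneration added for 1 h at room temperature. Detection reagent added for 20 min; luciferin light read as relative luminescence units.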
# Papain (Carica papaya) = Papain (Carica papaya) (UniProt P00784); test: Primary qHTS assay for inhibitors of the protease papain (AID 1645873; active = well fitted curve in the direction sought with a large enough effect; inconclusive = small, poorly fitted or top-dose-only effect, or another doubt; inactive = no such curve, though single readings can be large; an effect the other way counts as inactive or inconclusive;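 also: papain turnover of Z-FR-AMC read as the AMC fluorescence gain over 10 min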)
# [2] = Primary qHTS for inhibitors of nuclear receptor binding SET domain protein 2 (NSD2) in an RCH-ACV wild type WT cells (2C) (AID 1645877; active = well fitted curve in the direction sought with a large enough effect; inconclusive = small, poorly fitted or top-dose-only effect, or another doubt; inactive = no such curve, though single readings can be large; an effect the other way counts as inactive or inconclusive; also: nearly all actives have a fitted effect of over 70% in size; also: potency is read from the fitted curve at half-maximal effect); conditions: activity change, negative = cell killing: at 44.9 µM (top of the series) unless noted
# [3] = Primary qHTS for inhibitors of nuclear receptor binding SET domain protein 2 (NSD2) in an isogenic RCH-ACV NSD2 p.E1099K mutant (9B) (AID 1645876; active = well fitted curve in the direction sought with a large enough effect; inconclusive = small, poorly fitted or top-dose-only effect, or another doubt; inactive = no such curve, though single readings can be large; an effect the other way counts as inactive or inconclusive; also: nearly all actives have a fitted effect of over 70% in size)
# [4] = molecular target: Cytochrome P450 2C9 (Homo sapiens) (UniProt P11712); test: Cytochrome P450 family 2 subfamily C member 9 (CYP2C9) small molecule antagonists: luciferase biochemical (cell-free) qHTS assay (AID 1645842); also: potency is read from the fitted curve at half-maximal effect; nearly all actives have a fitted effect of over 55% in size
# Procedure, shortened: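 Luminescence, after 20 min with luciferin detection reagent, reflected CYP2C9 turnover during a 1 h NADPH-driven reaction at 37C. Enzyme-substrate mix contained 0.4% bovine serum albumin and was preincubated with compound 10 min at room temperature.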
# Tags tell the direction and shape of the fitted curve.
# Chain of UniProt P10635 (P10635 whole entry, looked up): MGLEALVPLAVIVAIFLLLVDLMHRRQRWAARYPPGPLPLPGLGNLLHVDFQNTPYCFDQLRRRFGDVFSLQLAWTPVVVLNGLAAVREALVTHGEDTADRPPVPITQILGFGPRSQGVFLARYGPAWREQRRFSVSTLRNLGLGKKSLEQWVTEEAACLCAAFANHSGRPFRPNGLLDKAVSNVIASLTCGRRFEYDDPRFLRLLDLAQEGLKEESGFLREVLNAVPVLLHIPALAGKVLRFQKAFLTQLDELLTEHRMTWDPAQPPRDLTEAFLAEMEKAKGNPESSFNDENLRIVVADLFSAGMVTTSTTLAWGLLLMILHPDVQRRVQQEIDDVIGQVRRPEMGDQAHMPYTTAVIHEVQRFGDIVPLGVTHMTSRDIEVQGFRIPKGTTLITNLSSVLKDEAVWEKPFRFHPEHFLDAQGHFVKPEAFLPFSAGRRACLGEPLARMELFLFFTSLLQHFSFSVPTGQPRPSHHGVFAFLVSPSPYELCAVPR
# Chain of UniProt P11712 (P11712 whole entry, looked up): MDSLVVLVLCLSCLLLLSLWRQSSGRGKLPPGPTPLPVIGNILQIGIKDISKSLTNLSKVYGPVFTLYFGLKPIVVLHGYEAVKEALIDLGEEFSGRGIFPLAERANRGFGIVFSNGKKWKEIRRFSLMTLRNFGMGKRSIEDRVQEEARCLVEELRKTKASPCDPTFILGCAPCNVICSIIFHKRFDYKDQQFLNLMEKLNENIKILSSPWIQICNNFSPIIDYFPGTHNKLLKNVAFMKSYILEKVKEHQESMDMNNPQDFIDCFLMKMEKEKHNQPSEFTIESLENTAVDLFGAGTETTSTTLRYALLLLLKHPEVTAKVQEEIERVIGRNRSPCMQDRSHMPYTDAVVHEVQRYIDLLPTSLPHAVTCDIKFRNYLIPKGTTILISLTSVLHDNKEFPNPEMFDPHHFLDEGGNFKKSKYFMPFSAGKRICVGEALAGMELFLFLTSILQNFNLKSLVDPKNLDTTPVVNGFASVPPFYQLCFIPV
# Chain of UniProt P00784 (P00784 whole entry, looked up, the tested form may be a part): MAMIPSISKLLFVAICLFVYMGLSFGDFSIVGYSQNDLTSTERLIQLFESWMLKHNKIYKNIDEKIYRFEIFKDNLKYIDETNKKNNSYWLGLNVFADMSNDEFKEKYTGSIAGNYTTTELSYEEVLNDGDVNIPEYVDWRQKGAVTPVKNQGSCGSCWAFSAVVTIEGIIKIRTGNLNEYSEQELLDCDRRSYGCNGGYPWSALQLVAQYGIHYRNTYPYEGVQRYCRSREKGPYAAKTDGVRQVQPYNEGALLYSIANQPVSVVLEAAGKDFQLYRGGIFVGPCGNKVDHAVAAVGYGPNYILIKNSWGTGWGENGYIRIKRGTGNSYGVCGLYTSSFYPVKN
structure (smiles),measurement,setting,value
c1ccc2c(CCNc3ccc(Nc4ccncc4)cc3)c[nH]c2c1,Potency,[1],active: 0.477 µM
Cc1nnc(SCC2=C(C(=O)O)N3C(=O)[C@@H](NC(=O)Cn4cnnn4)[C@H]3SC2)s1,Potency,[1],"inconclusive [inhibitor, partial curve]"
same,Potency,Papain (Carica papaya),inactive
same,Potency,[2],"inconclusive [inhibitor, partial curve, poor fit]"
CC(=O)OCC(=O)NCCCOc1cccc(CN2CCCCC2)c1,Potency,[1],"inconclusive [inhibitor, partial curve]"
same,Potency,[3],inactive
O=C(c1ccc(C(=O)N2CCC(N3CCCC3)CC2)c(Nc2ccccc2)c1)N1CCC(N2CCCC2)CC1,Potency,[1],"inconclusive [inhibitor, single point]"
same,Potency,[3],inactive
same,Potency,[2],inactive
CC(C)n1cnc2c(NCCc3ccc(O)cc3)nc(-c3csc4ccccc34)nc21,Potency,[1],"inconclusive [inhibitor, single point]"
Fc1cc(-c2cccc3ncc(-c4cnn(C5CCNCC5)c4)nc23)cc(F)c1CN1CCOCC1,Potency,[1],"inconclusive [inhibitor, partial curve, poor fit]"
same,Potency,[4],"inconclusive [inhibitor, single point]"
CC(=O)OCC(=O)[C@@]12OC3(CCCC3)O[C@@H]1C[C@H]1[C@@H]3CCC4=CC(=O)C=C[C@]4(C)[C@@]3(F)[C@@H](O)C[C@@]12C,Potency,[1],"inconclusive [inhibitor, partial curve]"
same,Potency,[4],active: 13.5 µM
OC[C@@H](O)[C@H](O)[C@H](O)[C@@H](O)CO,Potency,[1],inactive
